From PubChem BioAssay AID504466 (National Center for Advancing Translational Sciences (NCATS), 2011)
The whole screen tested about 330,000 compounds, of which about 4,200 (1.3%) were called active. This list was built around the results that the source calls inconclusive (neither active nor inactive); the mix of calls is not that of the screen. Calls come from the whole dose curve; as a rule, active = well fitted activation curve with a large enough effect; inconclusive = small, poorly fitted or top-dose-only effect; inactive = no such curve, though single readings can be large or run the other way. Potencies beside an inconclusive call are fits to weak or partial responses and may not hold up.

Assay: qHTS screen for small molecules that induce genotoxicity in human embryonic kidney (HEK293T) cells expressing luciferase-tagged ELG1; note: nearly all actives have a fitted effect of over 60% in size
Settings: HEK293T ELG1-luciferase reporter, luminescence, 16 h; series mostly up to 46 µM
Method in brief: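 Cells (2,000/well) expressing the ELG1-luciferase fusion are dosed by pin tool and kept 16 hr at 37 °C, 5% CO2. Signal comes from ONE-Glo luciferase reagent after 30 min at room temperature.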
Potency is the fitted concentration of half-maximal effect; tags give direction and shape of the fitted curve.

Row | SMILES | Potency
1 | Nc1ccccc1Nc1cc(-c2ccccc2)nn1-c1ccccc1 | inactive
2 | Cc1ccc2cc3cc(C(=O)NCCCN4CCCCCC4)oc3nc2c1 | inconclusive: 20.6 µM [activator, single point]
3 | Cc1ccc2c(COC(=O)c3ccccc3F)cc(=O)oc2c1 | active: 2.06 µM
4 | Nc1ccccc1-c1nnn(CC(=O)N2CCCc3ccccc32)n1 | inactive
5 | CCNC(=O)NC(=O)C(C)OC(=O)CCCSc1nc2ccccc2s1 (stereo unspecified) | inactive
6 | O=C(OCCN1CCCCC1)c1cc2ccccc2o1 | inactive
7 | CCOC(=O)CSc1nc(-c2ccncc2)ccc1C#N | inconclusive: 9.2 µM [activator, partial curve]
8 | CC(C)(C)c1ccc(/C=N/NC(=O)c2ccccn2)cc1 | inconclusive: 0.651 µM [activator, partial curve]
9 | N=c1c(C(=O)NCc2ccc(F)cc2)cc2c(=O)n3ccccc3nc2n1Cc1ccco1 | inconclusive: 29.1 µM [activator, partial curve, poor fit]
10 | CCN(CC)c1ccc(O)c(C=Nc2ccc(C)c(C)c2)c1 | inconclusive: 23.1 µM [activator, partial curve, poor fit]
11 | COc1ccccc1-c1ccc(SCC(=O)N2CCOCC2)nn1 | inactive
12 | CC(C)(C)c1ccc(-c2nnc3sc(-c4ccccn4)nn23)cc1 | inconclusive: 3.66 µM [activator, full curve]
13 | COc1ccc(/C=C/C(=O)c2ccc3c(c2)OCO3)cc1OC | inconclusive: 25.9 µM [activator, partial curve, poor fit]
14 | C=CCn1c(C)cc(C(=O)CSc2nc3ccccc3[nH]2)c1C | inconclusive: 0.291 µM [activator, full curve]
15 | COCCNC(=O)C(=O)Nc1ccc(Br)cc1 | inconclusive: 23.1 µM [activator, single point]
16 | COc1ccc(S(=O)(=O)NCCC(=O)Nc2ccc(C)cc2)cc1 | inactive
17 | c1ccc2oc(C3=NNC(=NC4CC4)SC3)cc2c1 | inconclusive: 0.411 µM [activator, full curve]
18 | CC(C)(C)c1ccc(C(=O)NNC(=O)Cc2ccccc2)cc1 | inconclusive: 7.08 µM [activator, partial curve, poor fit]
19 | Nc1c(C(=O)N/N=C/c2cccnc2)oc2nc(-c3ccccc3)cc(-c3ccco3)c12 | inactive
20 | Cn1cc(/C=N/NC(=O)c2ccccc2O)c2ccccc21 | inactive
21 | O=[N+]([O-])c1ccc(-c2ccc(/C=N/O)o2)cc1 | inconclusive: 23.1 µM [activator, partial curve, poor fit]
